The results in this text go back to PubChem BioAssay AID1347073 (National Center for Advancing Translational Sciences (NCATS), 2019).

The whole screen tested about 45,000 compounds, of which about 200 (0.44%) were called active. Another 7% or so got no clear call; they are omitted. The call rests on the fitted dose curve; in most records, active means well fitted activation curve with a large enough effect; inconclusive means small, poorly fitted or top-dose-only effect; inactive means no such curve, though single readings can be large or run the other way. Some of the results follow.
Potency means the concentration at half of the fitted maximal effect.

A short description of the assay: qHTS of TDP-43 Inhibitors: NCGC Sytravon Library Screen. Further: nearly all actives have a fitted effect of over 55% in size. On growth rescue (activation): 0% is about no effect. The note with it: yeast TDP-43 toxicity rescue, BacTiter-Glo growth, 24 h; series mostly up to 46.1 µM; growth rescue (activation): at the top concentration. In a few lines:
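TDP-43-expressing yeast, pregrown in raffinose, seeded at OD600 0.02 in galactose medium with compound for 24 hr at 30 deg C. Growth read by BacTiter-Glo luminescence, so rescue of toxicity appears as activation.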
For orientation: qHTS replaces the single test concentration by a dilution series.
Consider `Nc1nnnn1/N=C/C(Br)=C/c1ccccc1`, for which the “growth rescue (activation)” value is inactive: 13.2%.
For `CC(Sc1n[nH]c(-c2cccs2)n1)C(=O)N1CCCC1` (centres undefined), the “growth rescue (activation)” value is inactive: 15.6%.
As to `CCOC(=O)C1(CCOc2ccccc2)CCN(Cc2ccccc2O)CC1`, the “growth rescue (activation)” value is inactive: 0.999%.
`CCn1c([N+](=O)[O-])nc2c1c(=O)[nH]c(=O)n2C`: the “growth rescue (activation)” value was inactive: -0.0518%.
Same read-out and setting: to `CCOc1ccc(/C=N/NC(=O)Cn2ccnc2C)cc1` belongs inactive: 10.4%.
As to `O=S1(=O)CCC(NC(=S)Nc2ccc(Cl)cc2)C1` (centres undefined), the “growth rescue (activation)” value was inactive: -7.22%.
Regarding `Cc1ccc(C)c(CN2C(=O)CSc3ccc(C(=O)N4CCCC4)cc32)c1`, the “growth rescue (activation)” value was inactive: -2.72%.
As to `CSc1ccccc1NC(=O)c1cc(-c2ccco2)on1`, the “growth rescue (activation)” value was inactive: 13.5%.
Still for that read-out and setting: next, `Cc1ccc(NC(=O)Cn2cc(C(=O)C3CCCCC3)c3ccccc32)cc1`: inactive: 13.7%.
Turning to `COc1ccc2c(c1)c(/C=N/Nc1nc3ccccc3[nH]1)c(C)n2C`, the “growth rescue (activation)” value was inactive: 0.599%.
With `CCCNC(=O)NC(=O)COC(=O)CNS(=O)(=O)/C=C/c1ccccc1`, the “growth rescue (activation)” value is inactive: 1.02%.
As for `CCNc1c(NS(=O)(=O)c2ccc(OC)cc2)c(=O)oc2ccccc12`, the “growth rescue (activation)” value is inactive: 8.2%.
On the same count and under the same terms, next, `COc1ccccc1NC(=O)C(=O)NCc1ccccc1Cl`: inactive: 15.4%.
On to `COc1cc(NC(=O)C/C(C)=N/NC(=O)Cc2ccccc2)c(OC)cc1Cl`, for which the “growth rescue (activation)” value was inactive: 5.12%.
In the case of `COc1ccc(NC(=O)C2CCC(CNc3c(N4CCC(C)CC4)c(=O)c3=O)CC2)cc1OC` (centres undefined), the “growth rescue (activation)” value was inactive: -3.99%.
Regarding `N#Cc1c(F)cccc1N1CCN(Cc2ccc3c(c2)OCO3)CC1`, the “growth rescue (activation)” value is inactive: -0.177%.
For `CC(C)c1ccc(CNc2nc3nc4c(c(=O)n3[nH]2)CCC4)cc1`, the “growth rescue (activation)” value is inactive: -8.15%.
With `CC(=O)c1cccc(NC(=O)CSc2nnc(C(C)N(C)C)n2Cc2ccccc2)c1` (centres undefined), the “growth rescue (activation)” value is inactive: 17%.
Regarding `CN(c1ccccc1)S(=O)(=O)c1cccc(NC(=O)C2CCCO2)c1` (centres undefined), the “growth rescue (activation)” value is inactive: -21.6%.
On the same count and under the same terms, to `COCCn1nnnc1C(c1ccccc1OC)N1CCN(C(=O)c2ccco2)CC1` (centres undefined) belongs inactive: -7.24%.
Same read-out and setting: next, `O=C1COc2ccc(C(=O)C[n+]3cccc(O)c3)cc2N1`: inactive: 23.6%; `Cc1ccc2c(Cl)c(C(=O)N/N=C/c3cccn3C)sc2c1`: inactive: 6.14%; `O=C(C/C=N\OCc1ccc(Cl)cc1Cl)Nc1ccccc1`: inactive: -12.5%.
Turning to `COc1ccc(S(=O)(=O)NC(=O)C2(C)CCN2C(=O)Cc2cccc3ccccc23)cc1` (centres undefined), the “growth rescue (activation)” value is inactive: 12.6%.
`CC(C)CCN1CCN(Cc2ccon2)CC1CCO` (centres undefined): the “growth rescue (activation)” value is inactive: 8.9%.
In the case of `O=C(O)c1ccc(-c2ccc(/C=c3/sc4nc5ccccc5n4c3=O)o2)cc1Cl`, the “growth rescue (activation)” value is inactive: -6.28%.
Still for that read-out and setting: next, `NS(=O)(=O)c1ccc(NC(=O)c2cccc(N3C(=O)c4ccccc4C3=O)c2)cc1`: inactive: 5.9%; `Nc1[nH]c(N=NC(=O)c2ccc(Cl)cc2)c2ccccc12`: inactive: -14.8%.
As for `Nc1ncnc2nc(SCc3ccccc3)[nH]c12`, the “growth rescue (activation)” value is inactive: -15.2%.
`Cc1ccc(-c2csc(NC(=O)CCNC(=O)c3ccc(Cl)cc3)n2)cc1`: the “growth rescue (activation)” value was inactive: 20.6%.
In the case of `CC(=O)c1ccc(N2CCC(C(=O)O)CC2)cc1`, the “growth rescue (activation)” value is inactive: 12.9%.
For `CC1CCCN(C(=O)COc2ccc(-c3ccccc3)cc2)C1` (centres undefined), the Potency was active: 11.2 µM.
`O=C(CSc1nnc(-c2c[nH]c3ccccc23)n1CC1CCCO1)Nc1ccc2c(c1)OCCO2` (centres undefined): the “growth rescue (activation)” value is inactive: -5.65%.
Take `CCC(C(=O)NC1CCCC1)N(Cc1ccco1)C(=O)CNS(=O)(=O)c1ccccc1` (centres undefined): the “growth rescue (activation)” value was inactive: -13.3%.
The same measure, in the same setting: next, `CCN(CC)S(=O)(=O)c1cccc(NC(=O)CC2CCCC2)c1`: inactive: -19.4%.
On to `COc1cccc(C(c2sc3nc(C)nn3c2O)N2CCC3(CC2)OCCO3)c1` (centres undefined), for which the “growth rescue (activation)” value was inactive: 4.39%.
`CN(C)S(=O)(=O)c1ccc(NC(=O)CCNC(=O)c2ccc([N+](=O)[O-])cc2)cc1`: the “growth rescue (activation)” value is inactive: 0.375%.
Take `CCCn1nnnc1SCC(=O)N1CCCCC1`: the “growth rescue (activation)” value is inactive: -1.47%.
As to `c1ccc(Cn2c(NCc3ccncc3)nc3ccccc32)cc1`, the “growth rescue (activation)” value is inactive: -1.64%.
As for `COc1ccccc1NC(=O)c1c(Nc2ccccc2C)sc(C(=O)Nc2cccc(Cl)c2)c1N`, the “growth rescue (activation)” value was inactive: -33%.
Consider `COc1ccc(CCNc2nc(-c3cccc(NC(C)=O)c3)cs2)cc1OC`, for which the “growth rescue (activation)” value is inactive: 3.78%.
With `O=C(NCc1ccco1)c1ccccc1-c1nc(-c2ccc(F)cc2)no1`, the “growth rescue (activation)” value is inactive: -11.1%.
For the compound `COc1cc(-c2cnc3c(NC=O)cc(-c4cccc(NC(C)=O)c4)cn23)cc(OC)c1OC`, the “growth rescue (activation)” value was inactive: -6.49%.
For the compound `CC1CN(c2nc3ccccn3c(=O)c2/C=C(\C#N)C(N)=O)CC(C)O1` (centres undefined), the “growth rescue (activation)” value is inactive: -0.426%.
For the compound `CCOC(=O)N1CCN(c2nc(-c3ccccc3)c3ccccc3n2)CC1`, the “growth rescue (activation)” value is inactive: 7.65%.
Turning to `CCc1nnc2sc(-c3ccc(NC(=O)c4ccc5c(c4)OCCO5)cc3)nn12`, the “growth rescue (activation)” value was inactive: 10%.
`O=C(NCCC(=O)N1CCN(C(=O)c2ccco2)CC1)c1ccccc1Cl`: the “growth rescue (activation)” value was inactive: 12.6%.
For `Cc1c(Cl)cccc1NC(=O)CCCn1nc([N+](=O)[O-])cc1C`, the “growth rescue (activation)” value was inactive: -5.54%.
On the same count and under the same terms, to `COc1ccc(-c2nnc(N(C)C(=O)c3ccco3)s2)cc1OC` belongs inactive: -0.852%; to `COc1cc(SC)ccc1C(=O)OCC(=O)N1CC(=O)Nc2ccccc21`, inactive: -11.1%; to `COc1ccccc1CNC(=O)C1CCN(C(=O)c2sccc2-n2cccc2)CC1`, inactive: 7.44%.
For the compound `O=c1c(Cl)c(N2CCN(c3ccccc3)CC2)cnn1C12CC3CC(CC(C3)C1)C2`, the “growth rescue (activation)” value was inactive: -0.134%.
`CCn1cc(-c2cc(C(=O)O)c3ccccc3n2)cn1`: the “growth rescue (activation)” value was inactive: -16.3%.
Turning to `COC(=O)CSc1nnc(-c2ccc(OC)c(OC)c2)o1`, the “growth rescue (activation)” value is inactive: 2.29%.
